Experimental data: PubChem BioAssay AID504466 (National Center for Advancing Translational Sciences (NCATS), 2011)
The whole screen tested about 330,000 compounds, of which about 4,200 (1.3%) were called active. Inconclusive means that the source gave no clear call. Such entries were picked first, then a sample of the others. The call rests on the fitted dose curve; in most records, active means well fitted activation curve with a large enough effect; inconclusive means small, poorly fitted or top-dose-only effect; inactive means no such curve, though single readings can be large or run the other way. Potencies of inconclusive entries are doubtful fits and often do not repeat.

Test: qHTS screen for small molecules that induce genotoxicity in human embryonic kidney (HEK293T) cells expressing luciferase-tagged ELG1; further: nearly all actives have a fitted effect of over 60% in size; on activity change, positive = activation: % of control where 0% means no effect
Conditions: HEK293T ELG1-luciferase reporter, luminescence, 16 h; series mostly up to 46 µM; activity change, positive = activation: at the top concentration
Outline: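 ELG1-luciferase HEK293T cells, 2,000/well; compound pinned in; 16 hr, 37 °C, 5% CO2; ONE-Glo, 30 min RT; luminescence on CCD imager.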
Potency means the concentration at half of the fitted maximal effect; tags describe the fitted curve by direction and shape.

Structure (SMILES)	Potency	activity change, positive = activation
Cc1ccc(N=Nc2c(C)[nH]n(C(N)=S)c2=O)cc1C	inconclusive: 20.6 µM [activator, partial curve]	
Cc1ccc(/C=C2/Sc3ccc(C(=O)NCCN4CCOCC4)cc3NC2=O)cc1		inactive: 3.77%
CC(Cc1ccccc1)NC(=O)c1cc2ccccc2o1 (centres undefined)	inconclusive: 23.1 µM [activator, single point]	
COC(=O)c1ccc(CSc2ccc3nnc(-c4cccnc4)n3n2)o1	inconclusive: 5.17 µM [activator, full curve]	
CSc1nsc(SCC(=O)Nc2ccc(C(C)=O)cc2)n1	active: 8.2 µM	
Cc1csc(NC(=O)c2cc3c(s2)CCCCC3)n1	active: 0.206 µM	
COC(=O)C(CC(=O)c1ccc(Br)cc1)n1ccnc1 (centres undefined)	inconclusive: 29.1 µM [activator, partial curve, poor fit]	
O=C(Nc1ccc(N2CCCC2)cc1)c1cc2ccccc2o1	inconclusive: 10.3 µM [activator, partial curve]	
COc1ccc(NC(=O)c2ccc3c(c2)OCO3)cc1[N+](=O)[O-]	inconclusive: 13 µM [activator, partial curve]	
CCCN1C(=O)/C(=C/c2nc3ccccc3c(=O)[nH]2)c2ccccc21	inconclusive: 23.1 µM [activator, single point]	
O=C(O)c1ccc(CNC(=O)c2ccc3c(c2)OCCO3)cc1		inactive: 9.05%
O=C(NCc1ccc2c(c1)OCO2)c1ccc2c(c1)OCCO2	inconclusive: 35.5 µM [activator, single point]	
O=C(CC(Nc1ccc(F)cc1)C(=O)OCC(=O)c1cccs1)c1ccccc1 (centres undefined)	inconclusive: 4.11 µM [activator, partial curve, poor fit]	
COc1ccc(C(CNC(=O)c2sccc2C)N2CCOCC2)cc1 (centres undefined)	inconclusive: 25.9 µM [activator, single point]	
Cc1ccc(NC(=O)c2cnn(-c3ccccc3)c2C)c(C)c1	inconclusive: 4.61 µM [activator, partial curve, poor fit]	
O=[N+]([O-])c1cccnc1Oc1ccc(OCc2ccccc2)cc1	inconclusive: 29.1 µM [activator, single point]	
Cc1ccc(NC(=O)Nc2ccccc2)c(Br)c1	inconclusive: 5.8 µM [activator, partial curve]	
COc1ccc(CCNC(=O)COc2nsnc2N2CCOCC2)cc1OC		inactive: 2.2%
CCN(CC)S(=O)(=O)c1ccc(C(=O)OCC(=O)Nc2ccc(-c3nc4ccc(C)cc4s3)cc2)cc1	active: 1.64 µM	
COC(=O)C1CCN(C(=O)CCCOc2ccccc2)CC1	active: 2.59 µM	
COc1cc2ccccc2cc1C(=O)Nc1ccc(Br)cn1	inconclusive: 4.61 µM [activator, full curve]	
Cc1ccc(Nc2ncnc3c2oc2ccccc23)cc1	active: 7.31 µM	
O=C(NC(=S)Nc1ccccc1F)c1ccc(Br)o1	inconclusive: 20.6 µM [activator, partial curve, poor fit]	
Cc1ccc(O)c(N=Nc2nccs2)c1	active: 23.1 µM	
COc1ccccc1-c1cc(C(=O)N2CCCC2)no1	active: 2.91 µM	

Structure (SMILES)	Potency	activity change, positive = activation
O=S(=O)(Nc1ccc(-c2nc3cccnc3s2)cc1)c1cc(F)ccc1F	inconclusive: 20.6 µM [activator, single point]	
COc1ccc(-c2nnc(SC(C)C(=O)Nc3cccc(Cl)c3)o2)cc1 (centres undefined)	active: 20.6 µM	
NCCCn1c(C(=O)c2cc(Cl)c(N)c(Cl)c2)c2ccc([N+](=O)[O-])cc2[n+]1[O-]	inconclusive: 18.3 µM [activator, partial curve, poor fit]	
Cc1cc(C)cc(C(=O)NCC(=O)OC(C)C(=O)N(C)c2ccccc2)c1 (centres undefined)		inactive: -3.91%
CC(C)N=C1NN=C(c2cccs2)CS1	inconclusive: 9.2 µM [activator, partial curve]	
COc1ccc(C(CNC(=O)COc2cccc(C)c2)N2CCCC2)cc1 (centres undefined)		inactive: -0.697%
COc1cccc(NC(=O)CC(=O)c2ccccc2)c1	inconclusive: 20.6 µM [activator, partial curve]	
CCc1c(C)sc(NC(=O)c2cccs2)c1C#N	inconclusive: 20.6 µM [activator, single point]	
CN(C)c1ccc(N=Cc2nc(-c3ccccc3)oc2OC(=O)c2ccccc2)cc1	inconclusive: 16.4 µM [activator, partial curve]	
Cc1cc(C(=O)NCCC2=CCCCC2)ccc1[N+](=O)[O-]	inconclusive: 3.66 µM [activator, partial curve, poor fit]	
O=C(OCC(=O)c1c[nH]c2ccccc12)c1cccc(O)c1	inconclusive: 20.6 µM [activator, partial curve]	
Oc1c(N=Nc2ccc(F)cc2)ccc2ccccc12	active: 2.06 µM	
OC1(C(F)(F)F)CC(c2ccc3ccccc3c2)=NO1 (centres undefined)	inconclusive: 29.1 µM [activator, partial curve, poor fit]	
CC1=CC(C)(C)Nc2ccc(OC(=O)CCN3C(=O)c4ccccc4C3=O)cc21	inconclusive: 20.6 µM [activator, partial curve, poor fit]	
COc1ccc(Cc2nc3ccc(C(=O)N4C[C@@H](C)O[C@@H](C)C4)cc3o2)cc1OC	inconclusive: 18.3 µM [activator, single point]	
Cc1c(Cl)cccc1NS(=O)(=O)c1c(C(=O)N2CCOCC2)c(C)n(C)c1C		inactive: 0.198% [at 9.26 µM]
CN(/N=C/c1c[nH]c2ccccc12)c1cnn(-c2ccc(F)c(Cl)c2)c(=O)c1Cl		inactive: 3.37%
CN(C)C(=O)c1cc(-c2ccccc2)no1	inconclusive: 14.6 µM [activator, partial curve, poor fit]	
CN(C)c1ccc(/C=N/NS(=O)(=O)c2ccc(Br)cc2)cc1		inactive: -0.464%
Cc1ccc(C)c(-c2ccc(=O)n(Cc3cccc(Br)c3)n2)c1		inactive: -5.29%
Cc1nc2ccc(S(=O)(=O)NCC(=O)N(C)Cc3ccccc3)cc2s1		inactive: -6.25%
O=C(c1cc(COc2c(F)cccc2F)on1)N1CCSCC1	inconclusive: 20.6 µM [activator, partial curve, poor fit]	
c1cnc(SCCCOc2ccc3ccccc3c2)nc1	active: 20.6 µM	
COCCNC(=O)/C(C#N)=C/c1cc(C)n(-c2ccc(C)cc2)c1C	active: 4.11 µM	
O=C1NCCC/C1=N/Nc1ccc(F)cc1	inconclusive: 32.6 µM [activator, partial curve, poor fit]	

Structure (SMILES)	Potency	activity change, positive = activation
COc1ccc(NC(=O)COC(=O)c2ccccc2SCC(=O)N2CCCC2)cc1	inconclusive: 23.1 µM [activator, partial curve, poor fit]	
Cc1cc(C(=O)CN2C(=O)c3ccccc3C2=O)c(C)n1Cc1cccs1	inconclusive: 2.31 µM [activator, full curve]	
CC1CCCCN1C(=S)NCCc1ccccc1 (centres undefined)	inconclusive: 29.1 µM [activator, single point]	
COc1ccc(-c2cc(C(=O)Nc3ccc(O)cc3)c3ccccc3n2)cc1OC		inactive: -0.351%
CC(=O)Nc1ccc2nc(C3CC3)n(Cc3ccc(Cl)cc3)c(=O)c2c1	inconclusive: 29.1 µM [activator, single point]	
CCOC(=O)c1nc2ccccc2s1	inconclusive: 23.1 µM [activator, partial curve, poor fit]	
O=C(c1ccccc1)n1ccc(-c2cnc(-c3ccccc3)s2)n1	active: 1.64 µM	
CCOC(=O)N1CCN(C(=O)c2ccc(-n3c(C)ccc3C)cc2)CC1	inconclusive: 18.4 µM [activator, single point]	
COc1cc(/C=C/c2ccc3cccc(OC)c3n2)c(O)c([N+](=O)[O-])c1		inactive: -0.275%
COc1ccc(OCCCC(=O)Nc2cc([N+](=O)[O-])ccc2C)cc1		inactive: -5.52%
COc1ccc(NC(=O)CCOc2ccccc2)cc1	inconclusive: 14.6 µM [activator, partial curve, poor fit]	
CC1CC(C)CN(C(=O)c2cc3cc(Br)cc(Br)c3o2)C1 (centres undefined)	inconclusive: 16.4 µM [activator, partial curve, poor fit]	
O=C(Nc1ccc(NC(=O)C2CC2)cc1)c1ccco1	active: 13 µM	
COc1cc(/C=C2/C(=O)ON=C2C)ccc1OCc1cccc(F)c1	inconclusive: 18.3 µM [activator, single point]	
COc1ccc(CNCC(O)(c2ccccc2)c2ccccc2)cc1		inactive: -5.34%
CCCCCOc1ccc(CN2CCOCC2)cc1Cl	active: 14.1 µM	
O=C(Nc1ccc(F)cc1)c1sccc1SCc1cccc(C(F)(F)F)c1	inconclusive: 18.4 µM [activator, partial curve, poor fit]	
O=C(NNC(=O)c1ncc(Cl)c(Cl)c1Cl)c1ccc(F)cc1		inactive: 0.852%
COc1ccc(Cl)cc1C(=O)NC(C)C		inactive: 0.274%
NS(=O)(=O)c1ccc(NC(=O)CSc2n[nH]c(=O)n2C2CC2)cc1		inactive: 2.65%
CCCCNC(=O)N(C)c1nc2ccccc2s1	inconclusive: 18.3 µM [activator, partial curve, poor fit]	
COc1ccc(S(=O)(=O)N2CCC(Cc3ccccc3)CC2)cc1NC(C)=O	inconclusive: 23.1 µM [activator, partial curve, poor fit]	
Cc1ccc(S(=O)(=O)CCC(=O)OC(C)C(=O)NC2CCCCC2C)cc1 (centres undefined)		inactive: -0.088%
COC(=O)c1ccc(CNC(=O)C2CCC(=O)N(CCCc3ccccc3)C2)cc1 (centres undefined)		inactive: 0.377%
